Experimental data published in the supplement of paper PMC8792480.
This is one part of the list. Repeats are few or missing, and single values can be far off.

Test system: A549
Test: cell-surface PD-L1 MFI ratio relative to radiation alone (isotype-subtracted); higher = higher PD-L1 surface expression
Details: inducer: radiation 8 Gy; 10 µM; 24 h
Experimental: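 A549 and H460 NSCLC cells were treated with each library drug at 10 uM, then with radiation (8 Gy) or cisplatin (4 uM), and incubated for 24 h. Cell-surface PD-L1 was measured by flow cytometry as an MFI ratio: (MFI drug+inducer - MFI isotype)/(MFI inducer alone - MFI isotype). Hits were defined as ratio < 0.75.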
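Note: surface PD-L1 on NSCLC cells stained with a PE-labelled anti-human PD-L1 antibody before flow cytometry, screening a library of roughly two hundred mostly kinase and epigenetic inhibitors.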

Structure (SMILES)	cell-surface PD-L1 MFI ratio
CN1CCN(c2ccc([N+](=O)[O-])c3no[n+]([O-])c23)CC1	inactive: 0.979
COC(=O)[C@@H](N)CCCNC(=N)N[N+](=O)[O-]	inactive: 0.804
COc1cc([C@@H]2c3cc4c(cc3[C@H](O)[C@H]3COC(=O)[C@@H]23)OCO4)cc(OC)c1OC [Picropodophyllin (PPP)]	inactive: 1.73
